Assay results from the supplement of paper PMC11417369.
± gives the standard deviation of the averaged measurements. The list shows a part of the results.

What follows are sequences tested on PfAP2-G AP2 domain (GST-tagged) (assay: gcPBM binding intensity (ln(normalized median fluorescence intensity)); higher = stronger DNA binding).
Outline: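 Binding of GST-tagged P. falciparum DNA-binding domains, expressed in E. coli and used at about 25 μg on average, was carried out for 1 h in 1× PBS containing 1% milk, 0.2 mg/ml BSA, 0.5% salmon testes DNA and 0.03% Triton X-100. The target was an Agilent 4 × 180k array of primer-extended double-stranded 36-bp intergenic genomic probes plus negative controls, read with Alexa488 anti-GST antibody at 488 nm. Binding intensity is the highest Masliner-normalised natural-log median intensity across replicate spots of either probe orientation.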

Sequence	gcPBM binding intensity (ln)
ATAAATCCCAAAACCTTGCAAGACAACGTTTGATCA [CACACA_negctrl_site1327]	9.8 ± 0.15
TACATTTAAAAAAAAACACACATATTTATATTTATA [CACACA_site7236]	9.57 ± 0.15
GGAAGGATATAACATACACACACACCCATATATATA [CACACA_site9376]	9.975 ± 0.021
CATACATACATACATACACACATATATAAATATATG [CACACA_site7028]	10.6 ± 0.3
TAAGTGATCGCATAATGTACATATTATTTATTATTT [XGTACX_site3061]	11.2 ± 0.61
ATACTTTATAAATACTAAAGTGTATTTTGTAATATA [CACACA_negctrl_site1710]	9.9 ± 0.27
ATTTGTATATATAATTGTACGCATATTCTATACGAT [XGTACX_site7367]	11.6 ± 1.1
TTATGTATTTATTTATGTACTAATTGTATGCATATT [XGTACX_site6436]	11.1 ± 0.68
TTTCCTGGTCAAGGGGTTACGGTTACGTCCTCTTGC [CACACA_negctrl_site856]	10.7 ± 0.49
CATATACATAGACACACACACACATAAATAAATATA [CACACA_site6749]	10.2 ± 0.35
ATATTATCACAAGGTGGTACACAAAAAAAAAAAAAA [XGTACX_site8224]	11.4 ± 0.95
AAAAATATGAAAGTAACTAAGTTGTTATTGATAACA [CACACA_negctrl_site1608]	9.74 ± 0.15
ACGTTAGGCTTATTTGCACACTTGTATTATAATTTT [CACACA_site1317]	10.4 ± 0.12
TATATTTAAGTACATAAATAAGCCCATTTACATACA [CACACA_negctrl_site1224]	11.3 ± 0.89
TTTGGAGAATTCATAGTGCATTTATTTATTGTTAAT	9.725 ± 0.021
TACTTTCACATTAAATGTACGTATAGTTTCATTCTT [XGTACX_site8528]	11.4 ± 0.78
ATATTAAAAATATATACACACATATATATAAATATA [CACACA_site2257]	9.655 ± 0.007
ATAAATATGGAGCACACACACATAAACATACAGATA [CACACA_site4395]	10.5 ± 0.35
ATATTATAAATATAATGTACGTTTTAATTTCATGTT [XGTACX_site3557]	11.2 ± 0.79
TATATGAGCATAAAGACACACAAATAAAACCAAACA [CACACA_site3856]	10.2 ± 0.14
AAAATAAAATGAAAACGTACATGATAAATTTTAATT [XGTACX_site4199]	11.1 ± 0.72
ATATATAATTATTGAAGTACTTGTTCATAAAATGGT [XGTACX_site5656]	11.4 ± 0.86
TAAATGAATTTTACTATACACACGTATACATTTGTA [CACACA_site1210]	10 ± 0.057

Sequence	gcPBM binding intensity (ln)
ATATTTAAATTTTGCACACGCATATGAAATTAGGAC [CACACA_site1035]	10.5 ± 0.28
AAAATAAATAAATATACACACCATATTTATATTTTT [CACACA_site7361]	9.59 ± 0.27
AGAACAATTCTGTGGTGTACCAAAAAAAATTTAATT [XGTACX_site8082]	11.3 ± 0.55
AAAATTAAAATACGTACACACCTTATCTTTTTGGCT [CACACA_site4311]	11.7 ± 1.1
TACTACACACATTCATGTACTTGATAAATTAATGAT [XGTACX_site6444]	10.9 ± 0.47
ATAACTAATATGAAATGTACCCATCAAAGTGTGCAT [XGTACX_site4463]	10.9 ± 0.61
TAATTTGTTATTTATTGTACAAACATTATATGTTAA [XGTACX_site6637]	10.7 ± 0.33
ATACATCAAGGACACACACACACACCCACACCCACA [CACACA_site8013]	10.9 ± 0.6
GAAACATACATTTTTTGTCCGTAAGTATTATAATAA [XGTACX_site3273]	11 ± 0.55
AGTAGAATATCCCCTACACACCCAAATAATTTACAA [CACACA_site8339]	10.2 ± 0.11
AACTTACTTGGACATACACACATATATATATATATA [CACACA_site2978]	10.7 ± 0.49
TTTATATATTTTAGGTGTACATAAATTTTTATATAT [XGTACX_site5597]	11.7 ± 1.1
TCAAATATTCATAAATGTACATTTATTTTTCTCCTT [XGTACX_site5827]	10.7 ± 0.35
TAACTTAATATTAATGCACACAATTTATATATATAT [CACACA_site3903]	10 ± 0.2
CTATGAATAGGAAAAAGTACTAAACCTTTATATATA [XGTACX_site5022]	11 ± 0.49
ATTTTGCCTGACCCATGTACATATTATTTTTTGCAT [XGTACX_site2258]	11.3 ± 0.43
CACATAAAAATTGTGTTGCACTTTTATTCTTATATC	10.5 ± 0.35
GTAACAAATTAATAGTGTACATATTTTAAAAAAATA [XGTACX_site7150]	11.6 ± 0.88
TTTTGTTGAAAAAAAAAAAAAAAATTAAATTAAATT [GTGCAC_negctrl_site636]	9.535 ± 0.035
CATAGACACGAACATACACACGGACATACATACGGA [CACACA_site8101]	10.9 ± 0.55
AATGCAAAGGTGAAAGAACACACAAAAAAAAAAAAA [CACACA_site9333]	9.85 ± 0.4
GTGTTAAATTTTTGAACATGCAAGTTTTATTATTGA [TGCATGCA_site478]	9.78 ± 0.028
TATTTAAAAAACACATGTACGAGTATTATATATAAA [XGTACX_site6654]	11.1 ± 0.65

Sequence	gcPBM binding intensity (ln)
TATTGTATATAATAAACACACAATATTAAAAATATA [CACACA_site1057]	9.78 ± 0.12
GATTCATCTAAACACCGTACATATTATATATATATA [XGTACX_site6030]	10.7 ± 0.39
AAACTCAACTTATATACACACAATCTTTTTTTTTTA [CACACA_site29]	9.905 ± 0.078
CCCCTCGAAATAATTTGTACGAATATATTGTCTGTA [XGTACX_site8308]	11.6 ± 1.1
TAATATACTTAATACACACACGAATATTTATAAATA [CACACA_site6675]	10.3 ± 0.3
GTTCATAAATTAAACACACACACACCGCTGGATACC [CACACA_site5779]	10.5 ± 0.31
AGTATATTAAAAAATACACACGTATTATATCTACAT [CACACA_site8844]	10.11 ± 0.028
TAAAAAAAAAACATCTGTACCAATTTTTATGTATAA [XGTACX_site5196]	10.8 ± 0.4
AATAAAAGTTCACCTGTACACACATATATATATGTA [CACACA_site8500]	11.3 ± 0.76
ATGTATTTATATACTTGTACGTAAGATGTATTATAT [XGTACX_site908]	11.5 ± 1.1
ATATTAAAATACAGTGCATGTTAAAAATATATTATA [TGCATGCA_site977]	10.1 ± 0.2
TTATAACATCTTAAATGTACAAATATGTGCTTATTT [XGTACX_site7285]	10.7 ± 0.55
AATAATAATAGAAACACACACACATCTTTAATAATA [CACACA_site4805]	9.995 ± 0.049
ATATTTTTTTTCTACACACATACAAATATATATTAT [CACACA_site2359]	10.12 ± 0.085
ATTGGAAAATATGTTATATATATATATATATATATG [CACACA_negctrl_site116]	9.73 ± 0.11
TTAATTCGTACATACACACGCACATATATATATATA [CACACA_site1469]	11.3 ± 0.74
AATAACTTTTTAAACACACACACATATAAATAAATA [CACACA_site6196]	10.2 ± 0.13
ACATGCAACCATTCGGGTACAGAAATAAATATATAC [XGTACX_site4174]	11.5 ± 1.1
CTTTTTCGCATGAAAAGTACATGAAATATATTACAT [XGTACX_site8971]	11.2 ± 0.77
TAAATTTTAATAAATACACACAAATTTTAATTCTAT [CACACA_site6039]	9.895 ± 0.035
GGTTATAACGCACATGCACACGTAAATAAATATTAT [CACACA_site9277]	10.4 ± 0.21
AAGACAAAACAAAGAAGTACATATATATATATATAT [XGTACX_site4067]	11.3 ± 1.1
CATCTTAAATAAGAACGTACATTTTTTTTGATGAGA [XGTACX_site3462]	11.2 ± 0.73

Sequence	gcPBM binding intensity (ln)
TAATTTAAAAATGAACATATATATGTATGTAAATAT [TGCATGCA_negctrl_site135]	10.025 ± 0.007
TCTTCACCACGTGGAAGTACATAAAAAGATACACAA [XGTACX_site4747]	11.4 ± 0.93
ATGTATATATTTATGTGTACTTAAATTTTTTTTTGT [XGTACX_site8179]	11.6 ± 0.93
TTTTAATATATAGAGTAACAAATTTGTCTATTAATA [CACACA_negctrl_site1495]	9.835 ± 0.007
GGAGACTTTGTACAAACACACACATGAACACAATAT [CACACA_site8376]	10.9 ± 0.61
ATAAAACAAAAACACACACACATACACAAAAAAAAA [CACACA_site3848]	10.2 ± 0.26
TTTATATTATTATATCTTATTAATTATTTATCATTT [TGCATGCA_negctrl_site73]	9.84 ± 0.24
AATAATATTAACACACGTACAAAAGCAAACAACCAA [XGTACX_site7410]	11.3 ± 0.77
ATACATTCTAATACGTGTACATATATATATATATAT [XGTACX_site1881]	11.4 ± 0.81
CATATACATTGTATATGTACATATATATATATATAT [XGTACX_site3772]	11.2 ± 0.57
GATTATATATTAAAAAGTACTTTATAAATACTTCTA [XGTACX_site8992]	11.1 ± 0.57
TGATGCAAAATATATACACACATATATATATATATA [CACACA_site3052]	10 ± 0.3
TATATAGTTTATATTTGTACATATAGACATTTATAA [XGTACX_site6414]	10.8 ± 0.43
ACAAAACTCTTTAATTGTACAAATATAATATAAAAA [XGTACX_site5690]	10.9 ± 0.53
AGCAATATTTATTAAAGTACGTAAAAAAAATTCTCA [XGTACX_site6550]	11.3 ± 0.89
AACCATTGGGAAAGGGTGCACATATATATATATATA	10.6 ± 0.79
TATGGGTTTATATAGGTGCAATATATGTATATATAA	10.1 ± 0.32
TATACCACCCGATATACACACTTGTAGACATCTTTT [CACACA_site4268]	10.1 ± 0.021
TATATATGTATAAGAGTGCATATGCATATATGTATA [GTGCAC_site9692]	9.92 ± 0.13
TAAAATATGGAAATCACACATTTATTAAAATATATA [CACACA_site4623]	9.71 ± 0.11
